Experimental data reported in PubChem BioAssay AID1030 (National Center for Advancing Translational Sciences (NCATS), 2008).
Several values for one entry are separate records, joined by “and”; a condition that tells them apart may be missing. Identical values can stand only once. Among all 220,000 compounds or so, about 16,000 (7.3%) were called active. Inconclusive results, whose numbers are uncertain, are shown with a selection of clear calls. Calls follow the shape of the dose curve; as a rule, active = well fitted inhibition curve with a large enough effect (not every such curve was filed as active); inconclusive = small, poorly fitted or top-dose-only effect, or another doubt; inactive = no such curve, though single readings can be large or run the other way. Potencies of inconclusive entries are left out as doubtful fits.

What follows are compounds tested against Aldehyde dehydrogenase 1A1 (Homo sapiens) (UniProt P00352) (assay: qHTS Assay for Inhibitors of Aldehyde Dehydrogenase 1 (ALDH1A1)). Details: Purified ALDH1A1, NADH fluorescence, propionaldehyde substrate; series mostly up to 75.3 µM; activity, negative = inhibition: at the top concentration.
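For activity, negative = inhibition in this document: plate controls were no enzyme wells and a reference inhibitor.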
Potency is read from the fitted curve at half-maximal effect; tags tell the direction and shape of the fitted curve.

Chain of UniProt P00352 (P00352 whole entry, looked up): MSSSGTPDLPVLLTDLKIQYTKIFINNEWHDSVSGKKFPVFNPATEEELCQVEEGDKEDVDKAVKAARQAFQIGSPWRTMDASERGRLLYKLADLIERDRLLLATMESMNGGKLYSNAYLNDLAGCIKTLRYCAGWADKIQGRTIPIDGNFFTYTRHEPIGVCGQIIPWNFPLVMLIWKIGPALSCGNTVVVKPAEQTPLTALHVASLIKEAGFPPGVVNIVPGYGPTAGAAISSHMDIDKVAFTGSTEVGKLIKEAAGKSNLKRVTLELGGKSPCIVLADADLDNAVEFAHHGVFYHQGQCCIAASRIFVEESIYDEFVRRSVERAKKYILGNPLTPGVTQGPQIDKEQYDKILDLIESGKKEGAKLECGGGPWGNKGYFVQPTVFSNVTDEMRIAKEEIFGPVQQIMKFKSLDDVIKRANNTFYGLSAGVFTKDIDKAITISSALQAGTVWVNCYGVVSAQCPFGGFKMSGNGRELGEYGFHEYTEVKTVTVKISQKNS

Structure (SMILES) | Potency | activity, negative = inhibition
Cc1ccccc1Cc1n[nH]c(=S)n1N | inconclusive [inhibitor, single point] | 
CCN(CC)CC(=O)Nc1ccc(C)cc1Br | active: 12.6 µM | 
CCN1CCN(CCOc2ccccc2-c2ccccc2)CC1 | inconclusive [inhibitor, partial curve] | 
Cc1ccc(C)n1-n1cnc2sc(-c3ccccc3)cc2c1=O | inconclusive [inhibitor, single point] | 
CCCN(CC(=O)Nc1ccc(C(N)=O)cc1)CC(=O)Nc1ccccc1C | inconclusive [inhibitor, partial curve, poor fit] | 
CC1CCCN(CC(O)CN)C1 (stereo unspecified) |  | inactive: 3.68%
COc1cccc(/C=N/n2nnnc2N)c1OCc1ccccc1Cl | inconclusive [inhibitor, partial curve] | 
Cc1ccc(C(=O)N2CCN(c3cc(=O)[nH]nc3-c3ccccc3)CC2)cc1 | active: 15.8 µM | 
CCOc1ccc(-c2ncncc2-c2ccc(OC)cc2)c(O)c1 |  | inactive: 12.8%
O=C(N/N=C1\CC2CC=CC12)c1ccc(COc2ccccc2)cc1 (stereo unspecified) |  | inactive: -4.26%
C/C(=N\Nc1ccc(F)cc1F)c1ccc(Br)s1 | active: 12.6 µM | 
CCOc1ccc(-c2[nH]ncc2-c2ccc(OC)c(OC)c2)c(O)c1 | inconclusive [inhibitor, partial curve] | 
Cc1ccc(N(CC(=O)NCCSc2ccccn2)S(C)(=O)=O)cc1 | inconclusive [inhibitor, single point] | 
O=c1c2ccccc2nc(/C=C/c2c[nH]c3ccccc23)n1CCO |  | inactive: -0.142%
NC(=S)N=Nc1c(O)n(Cc2ccc(Br)cc2)c2ccccc12 | active: 3.55 µM | 
O=C(c1ccc(S(=O)(=O)N2CCOCC2)cc1)N1CCN(c2ccccn2)CC1 | inconclusive [inhibitor, partial curve] | 
Cc1oc2c(c1C(=O)N1CCC(C)CC1)C(=O)c1ccccc1C2=O | inconclusive [inhibitor, single point] | 
COc1ccccc1N1CCN(Cc2nc(-c3ccc(F)cc3)oc2C)CC1 | active: 0.398 µM | 
CC1(C)CC(CCNS(=O)(=O)c2ccccc2)(c2ccccc2)CCO1 (stereo unspecified) |  | inactive: 1.97%
CC1CCN(C(C(=O)Nc2ccc(C(C)C)cc2)c2ccc3c(c2)OCO3)CC1 (stereo unspecified) |  | inactive: 0.656%
Cc1ccc(NC(=O)c2cncc(Br)c2)cc1S(=O)(=O)N(C)C | inconclusive [inhibitor, single point] | 
O=C(Nc1ccc2sc3ccccc3c(=O)c2c1)c1ccccc1Cl | inconclusive [inhibitor, single point] | 
CC1=C(/C=C/C(C)=C/C=C/C(C)=C/C=C/C=C(C)/C=C/C=C(C)/C=C/C2=C(C)CCCC2(C)C)C(C)(C)CCC1 | inconclusive [inhibitor, single point] | 

Structure (SMILES) | Potency | activity, negative = inhibition
Cc1ccc(C(=O)Nc2ccc3c(c2)CCC3)o1 | active: 17.8 µM | 
CSc1nc2nc(-c3ccccc3)cc(C(F)(F)F)n2n1 | inconclusive [inhibitor, partial curve] | 
COc1ccc(C=NCC2COc3ccccc3O2)cc1OC (stereo unspecified) | inconclusive [inhibitor, partial curve] | 
COc1cccc(C2C(C(=O)c3cc4ccccc4o3)=C(O)C(=O)N2c2cc(C)on2)c1OC (stereo unspecified) | inconclusive [inhibitor, single point] | 
O=C(CCC1CCCCC1)Nc1ccc(C(=O)c2ccncc2)cc1 | inconclusive [inhibitor, single point] | 
COc1cccc2sc(Nc3nc(-c4cc5ccccc5oc4=O)cs3)nc12 | inconclusive [inhibitor, single point] | 
Cc1cc(C(=O)N[C@H](c2ccccc2)[C@@]2(C)C[C@@H]2[C@@H](C)C(=O)Nc2ccc3ccccc3c2)no1 | active: 8.91 µM and active: 12.6 µM | 
O=C1NC(CCc2ccccc2)C(=O)N1CCOc1cccc(Br)c1 (stereo unspecified) | inconclusive [inhibitor, single point] | 
COc1cc(CCC(=O)N2CCN(S(=O)(=O)c3ccc(C)c(C)c3)CC2)cc(OC)c1OC | inconclusive [inhibitor, single point] | 
Cc1c(CCC(=O)O)c(=O)oc2cc3occ(-c4ccc(F)cc4)c3cc12 |  | inactive: -2.62%
CCOc1ccc(S(=O)(=O)NN=C2CCN(C(C)=O)CC2)cc1 | active: 7.94 µM | 
CC(=O)c1ccccc1OCC(O)CN1CCN(CCN2C(=O)c3cccc4cccc(c34)C2=O)CC1 (stereo unspecified) | inconclusive [inhibitor, single point] | 
CN(c1ccccc1)S(=O)(=O)c1ccc(Cl)c(C(=O)OCC(=O)N2CCOCC2)c1 |  | inactive: 8.36%
COc1cc(-c2ccc(NC(=O)NC3CC3)c(OC)c2)ccc1NC(=O)NC1CC1 | inconclusive [inhibitor, single point] | 
CCOC(=O)C1=C(C)OC(N)=C(C#N)C1c1cncc(-c2ccc(F)cc2)c1 (stereo unspecified) | inconclusive [inhibitor, single point] | 
O=C(CN(Cc1ccco1)C(=O)c1nsc(Cl)c1Cl)NC1CCCCC1 | inconclusive [inhibitor, partial curve] | 
COc1ccc(C2=Nc3ccccc3OC2)cc1 | active: 22.4 µM | 
COc1ccc(N(C(=O)c2ccco2)S(=O)(=O)c2ccc(F)cc2)cc1 |  | inactive: -0.719%
CCOc1ccc(NC(=O)CN2CCN(CC(=O)Nc3ccc(F)c(F)c3)CC2)cc1 | active: 3.98 µM | 
CCOc1cc(CNc2ccc3[nH]c(=O)[nH]c3c2)ccc1OCC(=O)NC(C)(C)C | inconclusive [inhibitor, single point] | 
Cc1ccc2c(n1)sc1c(N)ncnc12 | inconclusive [inhibitor, single point] | 
O=C(C1=C(O)C(=O)N(c2ncccn2)C1c1cccs1)c1ccco1 (stereo unspecified) | inconclusive [inhibitor, single point] | 
O=C(c1noc2c1CCc1ccccc1-2)N1CCc2ccccc2C1 | inconclusive [inhibitor, partial curve] | 
